The list shows a part of the results.
B1: chr9:14812383:14812384:-_ENSMUSG00000031934_ENSMUST00000164273|mus_mus|mus_mus_mus_hu_True|1_28 (ssRNA)
RNA: GGGAGUUCUACAGUCCGACGAUCAUAGCCCAGGUAGAUACACGCUAACAGUAUAAUGAUGAGUGUCAGCAGGCGGCAGCUAAUGUACUUGAUGAUUAAAUUAUUAGAGUUCUUUUUUGUCUUCAAGUACUGCUCCACGAUUGGCAACAGAGGAUUGAGCAUCA
B2: chr13:100211666:100211667:-_ENSMUSG00000052727_ENSMUST00000064762|mus_hu|FALSE|FALSE (ssRNA)
RNA: GGGAGUUCUACAGUCCGACGAUCGUUGGCAGGAUGGGUGGUGCUUAGUAACUCCCCGAUCUCUUGAUCGGUGAAAAUCUCUAUGAAGUUCUGGAAGGAGAAAGAGCCGGACUGGAGAAUGAGCUCUCCGGUAUUUUCAAAGCACAACAGAGGAUUGAGCAUCA
B3: chr7:44244176:44244177:+_ENSG00000106636_ENST00000223369|hu_mus|hu_hu_hu_mus_False|88_88 (ssRNA)
RNA: GGGAGUUCUACAGUCCGACGAUCACUGUCGCUCCGGACGUAGACAUGGCACAGAUACUCUUGUUCUUUGACAGAAGCUCUGCUGCCUUUCCCCGAGCGUUCCACAAUCAGUUGACUUGUAAAGGUCAUGAAUUCCUGCACACUCAACAGAGGAUUGAGCAUCA
B4: chr3:55808730:55808731:-_ENSMUSG00000027799_ENSMUST00000029374|mus_mus|motif|central (ssRNA)
RNA: GGGAGUUCUACAGUCCGACGAUCUGACGUCGUAUGAAUUCUGAAGUCUUUCUCUUCCAUUAUGCUUGAUGUGCACGUUAACUCGGCACUCGCAGUCAUGUGAGCAAGCAACCCAAGAUCAUCACUGACACCAAGAUGUACUUGCAACAGAGGAUUGAGCAUCA
B5: chr2:15768762:15768763:+_ENSG00000079785_ENST00000233084|hu_hu|FALSE|FALSE (ssRNA)
RNA: GGGAGUUCUACAGUCCGACGAUCGGGCAGAGUGACAUUUAUAACAUAAGGAACACCGUGGAUAUCAAUUCCUCUAGCAGCUACAUCUGUGCAAAUCAAGAAUCUUACAUCUCCUUUCUUAAAUCUUUCCAAGUUUUGCUUUCUCAACAGAGGAUUGAGCAUCA
B6: chr1:150192741:150192742:-_ENSG00000143401_ENST00000314136|hu_mus|FALSE|FALSE (ssRNA)
RNA: GGGAGUUCUACAGUCCGACGAUCAAUUAUGGGCUAAAAAUGUCUAAUACAUUAAGCAUGAAUUAUAAAAAUCCAGAAUCUAAAUACAGUGCUAGAGAAUUUCACUAUGGGAAGAUGAAUGAGAAUUCUUUUCUAAGAACAUUACAACAGAGGAUUGAGCAUCA
B7: 88941431_88943671_2168_CDS_ENSMUSG00000053333_ENSMUST00000065694|mouse|control|control (ssRNA)
RNA: GGGAGUUCUACAGUCCGACGAUCAGCAUAAUGCCGGAACUGCUCCUGGUCCUGCAGCAUCCCAGAGCAGAAGUACAGUGCCAUCUGCAUGGGCCGGGAGUACAUGUUGGUGAGCACCUCCUUCCGGGCCAGAGAGUACUUGUCCAACAGAGGAUUGAGCAUCA
B8: 179789816_179790473_675_CDS_ENSMUSG00000039086_ENSMUST00000041126|mouse|control|control (ssRNA)
RNA: GGGAGUUCUACAGUCCGACGAUCUGACAAGCUCAUGGAGGUUGUGGGCAGUGUGCUCUGAGCCGUCUGCUGCAUGGACACGUGGUUUGGACCGUUACCGAUCUGGCCCUGCAUGAGGGAGGCGGGGGGCAGGCCUGUGCUGACCAACAGAGGAUUGAGCAUCA
B9: 123687886_123694686_1377_CDS_ENSG00000051825_ENST00000606320|human|control|control (ssRNA)
RNA: GGGAGUUCUACAGUCCGACGAUCCAGUGACGGUAGCUUCAUCUCAUUACUAGUAUUAGACUGGUUUGGUGACACAUCUGUGGAAGACAAUGAUAUGAACGUCUUCUCUAAAGUUUCAGGCAAAGAGUGGUGCAUAUCCUUUUCCAACAGAGGAUUGAGCAUCA
B10: chr6:124997908:124997909:+_ENSMUSG00000030330_ENSMUST00000032480|mus_mus|FALSE|FALSE (ssRNA)
RNA: GGGAGUUCUACAGUCCGACGAUCGGAACAAUCCGGGUUGUCACAGCCAAUCAUCUCUCCAUAGGAGACCUGGUGACAAAGGCAAUAUGUGGGUUCGUUGGGAUCCACAGGCAUAUCCAACACAUCAGAGGGGUGGACACUGCCCAACAGAGGAUUGAGCAUCA
B11: chr19:8913615:8913616:-_ENSMUSG00000071658_ENSMUST00000096259|mus_hu|mus_mus_mus_hu_False|28_68 (ssRNA)
RNA: GGGAGUUCUACAGUCCGACGAUCAGGGUACCAAAACCUUCUGCCUGAAAUGGGUGCCCCACCCAGUCAGGACUUGGAGCUGAAAGUAUCUGAUGCAGAAGCAGUGAAUGCAGAGAAGGAGGCCCCUGGGGAGGGCCAGGCCAGCAACAGAGGAUUGAGCAUCA
B12: chr1:244855233:244855234:+_ENSG00000121644_ENST00000302550|hu_mus|hu_hu_hu_mus_True|58_88 (ssRNA)
RNA: GGGAGUUCUACAGUCCGACGAUCCAUCAGAUGGUAGGCGUUGCCCUUGUAUUCUUUCCCCAGUUCUUCUACAAUUUUUUCUAUAUCAUCUUCUAGAAAGUCCGUACUUCCUAGAACAACAGCUUCUUUAAAUUUAAAUGUUUCCAACAGAGGAUUGAGCAUCA
B13: 4747903_4748125_6276_CDS_ENSMUSG00000067889_ENSMUST00000008991|mouse|control|control (ssRNA)
RNA: GGGAGUUCUACAGUCCGACGAUCUCUGGCCUCUAUCUCUGCUUUGAUUCCUUGUUGGUUUUUGAUGACUAAAUCUGCAGAGGACACAUCCCGGGGCCGCUCCUGGGCAUCCAUCUGCAGGUUAAUCCCAUCCAUCCACAGCAUCAACAGAGGAUUGAGCAUCA
B14: 107778335_107779655_711_CDS_ENSG00000196776_ENST00000355354|human|control|control (ssRNA)
RNA: GGGAGUUCUACAGUCCGACGAUCCCCUGUAGAAGUCACAAUUAAACCAAGGCCAGUAGCAUUCUUUAAUGAAUAUUCACCUGGGACGAAAAGAAUGGCUCCAACAAUGACAAUGACAGUGAUCACUAGUCCAGCAACAAGUAACAACAGAGGAUUGAGCAUCA
B15: chr4:140556289:140556290:+_ENSMUSG00000036622_ENSMUST00000037055|mus_mus|mus_mus_mus_hu_False|1_28 (ssRNA)
RNA: GGGAGUUCUACAGUCCGACGAUCGAUGGAGCUCACCAGGCCCCCUUUUGCCGUGCAGAACCCUGUGCGGGUCACCACUGCCAGGACGUGCGGUCCCACAUAGGCCCGGGCCUGCAGGAUGAGGGUCCCGCAGAAGAGGGUGUGCAACAGAGGAUUGAGCAUCA
B16: 4342972_4343092_2119_CDS_ENSMUSG00000054611_ENSMUST00000075856|mouse|control|control (ssRNA)
RNA: GGGAGUUCUACAGUCCGACGAUCCACUUGCCUAUCCUUUUUAGGGCUACAUUGGGGAUCCCAAACUUGGCCAUUGUGGGAUCCCCGGGUAGAGUCUGAGGAUGAGUCUCCAGACAAAGUUUUCUUCAGACUUGGAAGACUUCGCAACAGAGGAUUGAGCAUCA
B17: chrX:41029285:41029286:+_ENSG00000124486_ENST00000378308|hu_mus|FALSE|FALSE (ssRNA)
RNA: GGGAGUUCUACAGUCCGACGAUCUGUAUGAGACCAAACCUCCAAGUCAUCUACUUGCCUGCCCUGGUUUGGAAAUCGAACUAUAAAAGAGAGGUGUUUACCACGGAAAGCUCUUGACAUAGGCAAAAUUGUUCUUUCUUCAUGCAACAGAGGAUUGAGCAUCA
B18: chr2:198351390:198351391:-_ENSG00000144381_ENST00000345042|hu_hu|hu_hu_hu_mus_False|18_38 (ssRNA)
RNA: GGGAGUUCUACAGUCCGACGAUCUCAUUCCCACCCUCCACAGAAAGGCUGCUUCUGAACUCUCAUGUGGUGACACAGCGCUACAGUCCUGAUGCUCACAGAAUAGUAGAGAUGCCUCCUCAGUGAUAGUUGAAAGCAGGACACCAACAGAGGAUUGAGCAUCA
B19: chr6:31620082:31620083:-_ENSG00000204463_ENST00000375976|hu_hu|motif|central (ssRNA)
RNA: GGGAGUUCUACAGUCCGACGAUCCUAGCUGACUGCCCGCGUCUACUGCCUUCCCACGGUGUUCCAGCAGAACGGCACAACGGACCCACAGCCAAACACACACACACACACACACACACACACACACACACACACCCACCACCCCAACAGAGGAUUGAGCAUCA
B20: chr4:120981101:120981102:-_ENSG00000164109_ENST00000333047|hu_hu|FALSE|FALSE (ssRNA)
RNA: GGGAGUUCUACAGUCCGACGAUCGGUUCCUUUUGAACAAUGUGCAAUAAAUUCAUGAUGUUAACUCCAUGGUAAGUCAAAUAGGUACCAAAAAAAUAAAAGGAACAAUUACACACAGUUCAGUAAGUAUCAUUUUGGUUUUCUCAACAGAGGAUUGAGCAUCA
B21: 114940332_114940452_3345_CDS_ENSG00000197323_ENST00000358465|human|control|control (ssRNA)
RNA: GGGAGUUCUACAGUCCGACGAUCUUCAUCAGAGUCCUCAGUUACCUCACCAUCAUCCUCUUCCUGCUCAAACUCUGGCAAAGGUGCGAAGGUCCUGUCUGAGUAGAUCUCUGUGAGUUUAUCUUCAAAGUACAAUGCAACUGCCAACAGAGGAUUGAGCAUCA
B22: chr5:33461064:33461065:+_ENSG00000113407_ENST00000502553|hu_hu|FALSE|FALSE (ssRNA)
RNA: GGGAGUUCUACAGUCCGACGAUCGGUGAGUCCUGUGAGUGCUCCAGACAGCUCGUUCCUAUGAAGUACCCCAAAAUCAGCUAGCCGCAGAGGCAGUUCUCGCCAGGACCUUGGCCGAUGAUCAAACAUAAGGCAGUGUCCUGGCAACAGAGGAUUGAGCAUCA

The binders below were run against T1, UNK ZnF1-3 (human, UniProt Q9C0B0 31-174) (assay: nsRBNS (natural sequence RNA bind-n-seq); RBNS binding buffer (assumed for nsRBNS): 25 mM Tris pH 7.5, 150 mM KCl, 3 mM MgCl2, 0.01% Triton X-100, 500 ug/ml BSA, 20 U/ml SUPERase-In, 4 C; UNK is unkempt and MSI1 is Musashi-1; names of the RNAs are library labels; protein concentration not given here; high values mean tight binding).
T1 sequence: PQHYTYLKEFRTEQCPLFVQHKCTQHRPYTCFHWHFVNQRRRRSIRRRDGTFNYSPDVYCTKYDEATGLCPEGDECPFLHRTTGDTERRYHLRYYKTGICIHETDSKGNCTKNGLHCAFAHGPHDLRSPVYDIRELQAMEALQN

Row | Binder | binding signal
1 | B1 | 1.35 enrichment R
2 | B2 | 1.3 enrichment R
3 | B3 | 0.518 enrichment R
4 | B4 | 0.562 enrichment R
5 | B5 | 1.46 enrichment R
6 | B6 | 0.916 enrichment R
7 | B7 | 0.926 enrichment R
8 | B8 | 0.969 enrichment R
9 | B9 | 1.14 enrichment R
10 | B10 | 1.19 enrichment R
11 | B11 | 1.9 enrichment R
12 | B12 | 1.43 enrichment R
13 | B13 | 0.595 enrichment R
14 | B14 | 1.69 enrichment R
15 | B15 | 0.409 enrichment R
16 | B16 | 0.905 enrichment R
17 | B17 | 1.04 enrichment R
18 | B18 | 1.3 enrichment R
19 | B19 | 1.42 enrichment R
20 | B20 | 0.757 enrichment R
21 | B21 | 0.863 enrichment R
22 | B22 | 0.911 enrichment R

— paper PMC12136788
